Test results: PubChem BioAssay AID1030 (National Center for Advancing Translational Sciences (NCATS), 2008)
The whole screen tested about 220,000 compounds, of which about 16,000 (7.3%) were called active. The inconclusive results got no clear call from the source; some entries with a clear call stand among them for comparison. Calls come from the whole dose curve; as a rule, active = well fitted inhibition curve with a large enough effect (not every such curve was filed as active); inconclusive = small, poorly fitted or top-dose-only effect, or another doubt; inactive = no such curve, though single readings can be large or run the other way. Potencies of inconclusive entries are left out as doubtful fits.

target: Aldehyde dehydrogenase 1A1 (Homo sapiens) (UniProt P00352); experiment: qHTS Assay for Inhibitors of Aldehyde Dehydrogenase 1 (ALDH1A1); details: Purified ALDH1A1, NADH fluorescence, propionaldehyde substrate; series mostly up to 75.3 µM
Potency is the fitted concentration of half-maximal effect; tags give direction and shape of the fitted curve.

Sequence of UniProt P00352 (P00352 whole entry, looked up): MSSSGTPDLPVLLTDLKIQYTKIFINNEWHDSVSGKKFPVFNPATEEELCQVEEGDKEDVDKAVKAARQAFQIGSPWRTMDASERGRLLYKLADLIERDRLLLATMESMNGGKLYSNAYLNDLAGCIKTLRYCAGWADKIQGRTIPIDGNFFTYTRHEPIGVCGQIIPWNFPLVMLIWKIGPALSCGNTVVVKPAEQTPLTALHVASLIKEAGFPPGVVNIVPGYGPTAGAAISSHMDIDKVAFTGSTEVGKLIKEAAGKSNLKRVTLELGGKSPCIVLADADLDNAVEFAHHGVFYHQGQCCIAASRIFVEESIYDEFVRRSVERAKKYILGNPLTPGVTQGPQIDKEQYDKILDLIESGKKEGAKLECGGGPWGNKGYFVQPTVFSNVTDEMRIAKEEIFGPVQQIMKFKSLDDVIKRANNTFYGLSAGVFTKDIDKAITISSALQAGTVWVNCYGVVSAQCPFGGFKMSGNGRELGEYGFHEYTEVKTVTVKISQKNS

Compound	Potency
Cc1cc(C)c(NC(=O)CCn2nnc3ccccc32)c(C)c1	inactive
CCOC(=O)CCc1nc2ccccc2[nH]1	inactive
CCn1c(/C=N/c2nc3ccccc3n2C)nc2ccccc21	inconclusive [inhibitor, partial curve]
CC1CN(CCOc2ccc([N+](=O)[O-])cc2)CC(C)O1 (centres undefined)	inconclusive [inhibitor, single point]
COc1cccc(CN2CCN(C3CSCCSC3)CC2CCO)c1 (centres undefined)	inconclusive [inhibitor, single point]
COC(=O)CC1=C(C(=O)OC)C(c2cc(OC)c(OC)cc2OC)C(C#N)=C(N)O1 (centres undefined)	inconclusive [inhibitor, single point]
COc1cccc(Nc2ncc3nc(-c4ccccc4)c(=O)n(C)c3n2)c1	inconclusive [inhibitor, single point]
C/C(=N\NC(=O)c1cccc(Br)c1)c1cccc(NC(=O)c2ccc(C)o2)c1	inactive
OC(CNc1ccccc1)Cn1ccc2ccccc21 (centres undefined)	inactive
COc1ccc(C(=O)Nc2ccc(S(=O)(=O)NC(C)C)cc2)cc1	inactive
COc1ccccc1C(=O)O/N=C(\N)c1ccccc1Cl	inactive
CC1=C(C)CC(C(=O)N2CCN(Cc3ccc4c(c3)OCO4)CC2)C(C(=O)O)C1 (centres undefined)	inconclusive [inhibitor, single point]
CCC(Sc1nnc(C)s1)C(=O)Nc1nccs1 (centres undefined)	inconclusive [inhibitor, single point]
CC1(C)Cc2nc3n[nH]c(N)c3cc2CO1	inactive
O=C(c1ccco1)N1CCC[C@@]2(CCN(c3cccc(-c4ccccc4)c3)C2)C1	inconclusive [inhibitor, partial curve]
CC1=CC(C)(C)Nc2ccc(CSc3ccccc3)cc21	inconclusive [inhibitor, partial curve]
Cc1nnc(N/N=C\c2ccc(-c3cccc(C(=O)O)c3)o2)n1N	inconclusive [inhibitor, single point]
COCCNC(=O)COc1ccc(C)cc1C	inactive
Cc1ccc(OCCCc2c(C)n[nH]c2C)cc1	inconclusive [inhibitor, single point]
C=CCc1c(C)nc2ccc(C(=O)OCC)cc2c1Cl	inconclusive [inhibitor, partial curve]
O=C(COc1ccc(C(=O)c2ccccc2)cc1)NC1CCCCCC1	inconclusive [inhibitor, partial curve]
CCN(CC)S(=O)(=O)c1ccc(N2CCOCC2)c(NC(=O)COc2ccccc2C#N)c1	active: 12.6 µM
C=CCC(C)(O)C#Cc1ccccc1 (centres undefined)	inactive
CC[C@@H]1Cn2c(c3nc(-c4ccccc4)nc-3n(C)c2=O)N1	inconclusive [inhibitor, single point]
CCN(CC)CCCNC(=O)C(C)n1nc(C)c2sc3ccccc3c2c1=O (centres undefined)	inconclusive [inhibitor, single point]
Cc1ccc2nc(C3CCCN3Cc3nc(CCC(C)C)no3)[nH]c2c1 (centres undefined)	inactive
O=C(c1ccco1)N1CCC2(CC1)CCN(c1ccccn1)CC2	inconclusive [inhibitor, single point]

Compound	Potency
COc1ccc(OC)c(-c2c3c([nH]c(=S)c2C#N)CCCC3)c1	inactive
COc1cc(/C=C/C(=O)O)cc(S(=O)(=O)N(C)CCO)c1OC	inconclusive [inhibitor, single point]
COc1cc(OC)c(NC(=S)NCc2ccc(F)cc2)cc1Cl	inactive
C=CCSc1nc2c(c(=O)[nH]c(=O)n2C)n1CC	active: 14.1 µM
COCCCNC(=O)c1cc2c(=O)n(C)c3ccccc3c2n1C	inconclusive [inhibitor, single point]
Cn1c2ccccc2c2ncn(CCC3=CCCCC3)c(=O)c21	inconclusive [inhibitor, partial curve]
O=C(O)c1ccc(NCCC2=CCCCC2)c([N+](=O)[O-])c1	inconclusive [inhibitor, partial curve, poor fit]
CC(=O)c1ccc(N2CCN(C(=O)c3ccc4nc[nH]c4c3)CC2)cc1	inconclusive [inhibitor, single point]
Cc1cc(CNC(=S)Nc2ccc(Br)cc2Cl)nn1C	inconclusive [inhibitor, single point]
CCOC(=O)c1nc(-c2ccccc2)oc1N(C)C	inconclusive [inhibitor, partial curve]
CCCCO	inactive
COCCNC(=O)c1ccc2c(=O)n(Cc3ccco3)c(SCC(=O)NC3CCCC3)nc2c1	active: 7.94 µM
C=C1C2CC[C@@]3(C)C(c4ccoc4)OC(=O)C[C@@]13OC1CC(=O)C(C)(C)C(C(O)C(=O)OC)[C@]12C (some centres undefined)	inactive
COc1ccccc1C(=O)NC(=S)Nc1ccc(S(=O)(=O)N2CCN(C)CC2)cc1	inconclusive [inhibitor, single point]
CCC(=O)c1cc(F)c(N2CCN(C(=O)Cc3ccccc3)CC2)cc1C	inconclusive [inhibitor, single point]
Cc1cc(-c2n[nH]c(=S)n2/N=C/c2ccccc2[N+](=O)[O-])n[nH]1	inactive
c1cncc(-c2nc3cc4ccccc4cc3[nH]2)c1	inconclusive [inhibitor, partial curve]
Cc1ccc(N2CC(C(=O)Nc3cc(C)ccc3F)CC2=O)cc1 (centres undefined)	inactive
CCn1c2ccccc2c2cc(NC(=O)COC(=O)C3CCC(=O)N3)ccc21 (centres undefined)	inactive
Nc1ccn(Cc2ccc(F)cc2)n1	inactive
Cc1cc(C)c(NC(=O)CSc2nc3ccc(N4C(=O)c5ccccc5C4=O)cc3s2)c(C)c1	inactive
Cc1cc(=O)oc2cc3c(cc12)OCCO3	inconclusive [inhibitor, partial curve]
C(=C/c1ccccc1)/CN1CCN(C(c2ccccc2)c2ccccc2)CC1	inactive
O=C(CSc1nnnn1-c1ccc(O)cc1)Nc1cccc(S(=O)(=O)N2CCCC2)c1	inactive
CCC(C)NCCCOc1ccc([N+](=O)[O-])cc1 (centres undefined)	inconclusive [inhibitor, single point]
O=c1c(Cc2c(F)cccc2Cl)c(O)ccn1Cc1ccc2c(c1)OCO2	active: 7.94 µM
O=c1[nH]c(S)c(/C=C2\C=Nc3ccccc32)s1	active: 25.1 µM

Compound	Potency
COc1cccc(C2C(=O)N(C3CCCCC3)CC(=O)N2Cc2ccc(F)cc2)c1 (centres undefined)	inconclusive [inhibitor, single point]
Cc1ccc(NCCC(=O)c2ccc(Br)cc2)cc1	active: 0.794 µM
COc1cccc(-n2c(SCC(=O)Nc3nccs3)nnc2-c2ccoc2C)c1	inconclusive [inhibitor, single point]
CCCCN1C(=O)CCC(C(=O)O)C1c1ccccc1 (centres undefined)	inactive
COCCSc1ccccc1C(=O)NCCc1ccccc1	inconclusive [inhibitor, single point]
COc1ccc(N(CC(=O)Nc2ccc3c(c2)OCCO3)S(=O)(=O)c2c(C)nn(C)c2C)cc1	inconclusive [inhibitor, single point]
COc1cccc(NC(=O)CSc2nc3c(c(=O)n2C)SC(C)C3)c1 (centres undefined)	inconclusive [inhibitor, single point]
Cc1cc(C)n(-c2ccc(C(=O)O)cc2[N+](=O)[O-])n1	inactive
CCc1ccc(NC(=O)c2ccc(F)c(S(=O)(=O)NCC3COc4ccccc4O3)c2)cc1 (centres undefined)	inconclusive [inhibitor, single point]
CCCCSC1=C(C#N)C(c2ccccc2C)CC(=O)N1 (centres undefined)	inactive
COc1ccccc1-n1cnnc1SCC(=O)N1CC(=O)Nc2ccccc21	active: 4.47 µM
Cn1c(Cc2ccccc2)nnc1SCC(=O)c1ccc(Br)s1	active: 14.1 µM
CSc1nc2nc3c(cc2c(=O)n1-c1ccccc1)COC(C)(C)C3	active: 14.1 µM
CNC(=S)NNC(=O)COc1ccccc1C	inconclusive [inhibitor, single point]
Cc1cccc(OCC(=O)NC(=S)Nc2ccc(S(=O)(=O)NC3CCCCC3)cc2)c1	active: 15.8 µM
Cc1nnc(SCc2ccccc2CSc2nnc(C)s2)s1	inactive
Cc1cccc(OCCOC(=O)C2CCN(S(=O)(=O)c3cccs3)CC2)c1	inconclusive [inhibitor, single point]
COc1ccccc1NC(=O)Cc1csc(NC(=S)Nc2ccc(C)cc2)n1	inconclusive [inhibitor, single point]
CCOc1ccc(C(=O)CSCCC(=O)O)cc1	inconclusive [inhibitor, single point]
CC1=C(C)/C(=N\OS(=O)(=O)c2ccc(C)cc2)C=CC1=O	inconclusive [inhibitor, partial curve]
CCOC(=O)c1sc(N)c(C(=O)Nc2ccccc2OC)c1C	active: 4.47 µM
CC1CCN(S(=O)(=O)c2ccc(Br)s2)CC1	inactive
CNC(=O)c1ccccc1S(=O)(=O)c1ccccc1C#N	inactive
COc1ccc(NC(=O)N2CCN(c3nc(-c4cccc(OC)c4)cs3)CC2)cc1	inconclusive [inhibitor, single point]
CCOC(=O)N1CCC(=NNC(=O)COc2ccc(OC)cc2)CC1	inconclusive [inhibitor, partial curve]
